Assay results as given in US20220025050A1 (OSE IMMUNOTHERAPEUTICS, published 2022).

Molecular target: T1, recombinant hPD1 (Sino Biologicals, reference 10377-H08H) (human, UniProt Q15116 partial chain)
T1 construct: also called Human recombinant PD-1 protein; PD1-His recombinant protein
Assay: ELISA: hPD-1 immobilized, anti-human Fc peroxidase

T1 sequence (Q15116 25-167 limits assumed): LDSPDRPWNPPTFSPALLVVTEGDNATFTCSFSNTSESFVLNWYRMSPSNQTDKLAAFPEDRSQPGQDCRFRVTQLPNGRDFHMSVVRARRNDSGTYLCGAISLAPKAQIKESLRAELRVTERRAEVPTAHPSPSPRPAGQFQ

Row | Binder | EC50
1 | Chimeric anti-PD1 fused on its heavy chain to Type I-protein A (CD86) (other, not shown: small tags and cut ends, Bifunctional molecule) heavy: QIQLVQSGPELKKPGETVKISCKASGYTFTHYGMNWVKQAPGKGLKWMGWINTNTGEPTYAEEFKGRFAFSLETSASAAFLQINNLKNEDTATYFCAKEREPGMDSWGQGTSVTVSSASTKGPSVFPLAPCSRSTSESTAALGCLVKDYFPEPVTVSWNSGALTSGVHTFPAVLQSSGLYSLSSVVTVPSSSLGTKTYTCNVDHKPSNTKVDKRV[human IgG4 Fc with S228P L445P (EU numbers) omitted here]APLKIQAYFNETADLPCQFANSQNQSLSELVVFWQDQENLVLNEVYLGKEKFDSVHSKYMGRTSFDSDSWTLRLHNLQIKDKGLYQCIIHHKKPTGMIRIHQMNSELSVLANFSQPEIVPISNITENVYINLTCSSIHGYPEPKKMSVLLRTKNSTIEYDGVMQKSQDNVTELYDVSISLSVSFPDVTSNMTIFCILETDKTRLLSSPFSIELEDPQPPPDH light: DVLLTQTPLSLPVSLGDQASISCRSSQNIVHANGNTYLEWYLQKPGQSPKLLIYKVSNRFSGVPDRFSGSGSGTDFTLKITRVEAEDLGVYYCFQGSHVPNTFGGGTKLEIKRTVAAPSVFIFPPSDEQLKSGTASVVCLLNNFYPREAKVQWKVDNALQSGNSQESVTEQDSKDSTYSLSSTLTLSKADYEKHKVYACEVTHQGLSSPVTKSFNRGEC | 4.92 ng/mL

Molecular target: T1, recombinant hPD1 (Sino Biologicals, …)
Assay: ELISA: hPD-1 immobilized, anti-human Fc peroxidase
Remark: another data set of the same source

Row | Binder | EC50
2 | Humanized anti-PD1 (VH SEQ ID NO:19, VL SEQ ID NO:28) fused on its light chain to Type I-protein A (CD86) (other, Bifunctional molecule) heavy: QIQLVQSGSELKKPGASVKVSCKASGYTFTHYAMNWVRQAPGQGLEWMGWINTNTGEPTYAQGFTGRFVFSLDTSVSTAYLQISSLKAEDTAVYYCAREREPGMDTWGQGTLVTVSSASTKGPSVFPLAPCSRSTSESTAALGCLVKDYFPEPVTVSWNSGALTSGVHTFPAVLQSSGLYSLSSVVTVPSSSLGTKTYTCNVDHKPSNTKVDKRV[human IgG4 Fc with S228P L445P (EU numbers) omitted here] light: DVVMTQSPLSLPVTLGQPASISCRSSQSLVHANTNTYLEWYQQRPGQSPRLLIYKVSNRFSGVPDRFSGSGSGTDFTLKISRVEAEDVGVYYCFQGTHVPNTFGQGTKLEIKRTVAAPSVFIFPPSDEQLKSGTASVVCLLNNFYPREAKVQWKVDNALQSGNSQESVTEQDSKDSTYSLSSTLTLSKADYEKHKVYACEVTHQGLSSPVTKSFNRGECGGGGSGGGGSGGGGSAPLKIQAYFNETADLPCQFANSQNQSLSELVVFWQDQENLVLNEVYLGKEKFDSVHSKYMGRTSFDSDSWTLRLHNLQIKDKGLYQCIIHHKKPTGMIRIHQMNSELSVLANFSQPEIVPISNITENVYINLTCSSIHGYPEPKKMSVLLRTKNSTIEYDGVMQKSQDNVTELYDVSISLSVSFPDVTSNMTIFCILETDKTRLLSSPFSIELEDPQPPPDH | 8.89 ng/mL
3 | Humanized anti-PD1 (VH SEQ ID NO:19, VL SEQ ID NO:28) fused on its light chain to Type I-protein B (CD80) (other, Bifunctional molecule) heavy: QIQLVQSGSELKKPGASVKVSCKASGYTFTHYAMNWVRQAPGQGLEWMGWINTNTGEPTYAQGFTGRFVFSLDTSVSTAYLQISSLKAEDTAVYYCAREREPGMDTWGQGTLVTVSSASTKGPSVFPLAPCSRSTSESTAALGCLVKDYFPEPVTVSWNSGALTSGVHTFPAVLQSSGLYSLSSVVTVPSSSLGTKTYTCNVDHKPSNTKVDKRV[human IgG4 Fc with S228P L445P (EU numbers) omitted here] light: DVVMTQSPLSLPVTLGQPASISCRSSQSLVHANTNTYLEWYQQRPGQSPRLLIYKVSNRFSGVPDRFSGSGSGTDFTLKISRVEAEDVGVYYCFQGTHVPNTFGQGTKLEIKRTVAAPSVFIFPPSDEQLKSGTASVVCLLNNFYPREAKVQWKVDNALQSGNSQESVTEQDSKDSTYSLSSTLTLSKADYEKHKVYACEVTHQGLSSPVTKSFNRGECGGGGSGGGGSGGGGSVIHVTKEVKEVATLSCGHNVSVEELAQTRIYWQKEKKMVLTMMSGDMNIWPEYKNRTIFDITNNLSIVILALRPSDEGTYECVVLKYEKDAFKREHLAEVTLSVKADFPTPSISDFEIPTSNIRRIICSTSGGFPEPHLSWLENGEELNAINTTVSQDPETELYAVSSKLDFNMTTNHSFMCLIKYGHLRVNQTFNWNTTKQEHFPDN | 8.91 ng/mL
4 | Humanized anti-PD1 (VH SEQ ID NO:19, VL SEQ ID NO:28) fused on its light chain to Type II-protein A (OX40L) (other, Bifunctional molecule) heavy: QIQLVQSGSELKKPGASVKVSCKASGYTFTHYAMNWVRQAPGQGLEWMGWINTNTGEPTYAQGFTGRFVFSLDTSVSTAYLQISSLKAEDTAVYYCAREREPGMDTWGQGTLVTVSSASTKGPSVFPLAPCSRSTSESTAALGCLVKDYFPEPVTVSWNSGALTSGVHTFPAVLQSSGLYSLSSVVTVPSSSLGTKTYTCNVDHKPSNTKVDKRV[human IgG4 Fc with S228P L445P (EU numbers) omitted here] light: DVVMTQSPLSLPVTLGQPASISCRSSQSLVHANTNTYLEWYQQRPGQSPRLLIYKVSNRFSGVPDRFSGSGSGTDFTLKISRVEAEDVGVYYCFQGTHVPNTFGQGTKLEIKRTVAAPSVFIFPPSDEQLKSGTASVVCLLNNFYPREAKVQWKVDNALQSGNSQESVTEQDSKDSTYSLSSTLTLSKADYEKHKVYACEVTHQGLSSPVTKSFNRGECGGGGSGGGGSGGGGSQVSHRYPRIQSIKVQFTEYKKEKGFILTSQKEDEIMKVQNNSVIINCDGFYLISLKGYFSQEVNISLHYQKDEEPLFQLKKVRSVNSLMVASLTYKDKVYLNVTTDNTSLDDFHVNGGELILIHQNPGEFCVL | 5.41 ng/mL
5 | Humanized anti-PD1 (VH SEQ ID NO:19, VL SEQ ID NO:28) fused on its light chain to Type II-protein B (4-1BBL) (other, Bifunctional molecule) heavy: QIQLVQSGSELKKPGASVKVSCKASGYTFTHYAMNWVRQAPGQGLEWMGWINTNTGEPTYAQGFTGRFVFSLDTSVSTAYLQISSLKAEDTAVYYCAREREPGMDTWGQGTLVTVSSASTKGPSVFPLAPCSRSTSESTAALGCLVKDYFPEPVTVSWNSGALTSGVHTFPAVLQSSGLYSLSSVVTVPSSSLGTKTYTCNVDHKPSNTKVDKRV[human IgG4 Fc with S228P L445P (EU numbers) omitted here] light: DVVMTQSPLSLPVTLGQPASISCRSSQSLVHANTNTYLEWYQQRPGQSPRLLIYKVSNRFSGVPDRFSGSGSGTDFTLKISRVEAEDVGVYYCFQGTHVPNTFGQGTKLEIKRTVAAPSVFIFPPSDEQLKSGTASVVCLLNNFYPREAKVQWKVDNALQSGNSQESVTEQDSKDSTYSLSSTLTLSKADYEKHKVYACEVTHQGLSSPVTKSFNRGECGGGGSGGGGSGGGGSREGPELSPDDPAGLLDLRQGMFAQLVAQNVLLIDGPLSWYSDPGLAGVSLTGGLSYKEDTKELVVAKAGVYYVFFQLELRRVVAGEGSGSVSLALHLQPLRSAAGAAALALTVDLPPASSEARNSAFGFQGRLLHLSAGQRLGVHLHTEARARHAWQLTQGATVLGLFRVTPEIPAGLPSPRSE | 8 ng/mL
6 | Humanized anti-PD1 (VH SEQ ID NO:19, VL SEQ ID NO:28) fused on its light chain to Cytokine-protein A (IL-7) (other, Bifunctional molecule) heavy: QIQLVQSGSELKKPGASVKVSCKASGYTFTHYAMNWVRQAPGQGLEWMGWINTNTGEPTYAQGFTGRFVFSLDTSVSTAYLQISSLKAEDTAVYYCAREREPGMDTWGQGTLVTVSSASTKGPSVFPLAPCSRSTSESTAALGCLVKDYFPEPVTVSWNSGALTSGVHTFPAVLQSSGLYSLSSVVTVPSSSLGTKTYTCNVDHKPSNTKVDKRV[human IgG4 Fc with S228P L445P (EU numbers) omitted here] light: DVVMTQSPLSLPVTLGQPASISCRSSQSLVHANTNTYLEWYQQRPGQSPRLLIYKVSNRFSGVPDRFSGSGSGTDFTLKISRVEAEDVGVYYCFQGTHVPNTFGQGTKLEIKRTVAAPSVFIFPPSDEQLKSGTASVVCLLNNFYPREAKVQWKVDNALQSGNSQESVTEQDSKDSTYSLSSTLTLSKADYEKHKVYACEVTHQGLSSPVTKSFNRGECGGGGSGGGGSGGGGSDCDIEGKDGKQYESVLMVSIDQLLDSMKEIGSNCLNNEFNFFKRHICDANKEGMFLFRAARKLRQFLKMNSTGDFDLHLLKVSEGTTILLNCTGQVKGRKPAALGEAQPTKSLEENKSLKEQKKLNDLCFLKRLLQEIKTCWNKILMGTKEH | 6.17 ng/mL
